Assay results taken from PubChem BioAssay AID485344 (National Center for Advancing Translational Sciences (NCATS), 2010).
Several values for one entry are separate records, joined by “and”; a condition that tells them apart may be missing. Equal entries are not always repeated. Among all 340,000 compounds or so, about 6,900 (2%) were called active. Rule as the data show it: active = inhibition above about 30%; inactive = below that, where a call was filed. The list shows a part of the results, in another mix than the full data. The source gives no active or inactive call for entries shown without one.

molecular target: D(2) dopamine receptor (Homo sapiens) (UniProt P14416); experiment: HTS Assay for Allosteric Antagonists of the Human D2 Dopamine Receptor: Primary Screen for Antagonists; conditions: HEK293 TREx D2 cells, calcium flux, dopamine EC80; at 10 µM; stronger effect = higher value; also: 0% is about no effect
UniProt P14416, sequence (P14416 whole entry, looked up): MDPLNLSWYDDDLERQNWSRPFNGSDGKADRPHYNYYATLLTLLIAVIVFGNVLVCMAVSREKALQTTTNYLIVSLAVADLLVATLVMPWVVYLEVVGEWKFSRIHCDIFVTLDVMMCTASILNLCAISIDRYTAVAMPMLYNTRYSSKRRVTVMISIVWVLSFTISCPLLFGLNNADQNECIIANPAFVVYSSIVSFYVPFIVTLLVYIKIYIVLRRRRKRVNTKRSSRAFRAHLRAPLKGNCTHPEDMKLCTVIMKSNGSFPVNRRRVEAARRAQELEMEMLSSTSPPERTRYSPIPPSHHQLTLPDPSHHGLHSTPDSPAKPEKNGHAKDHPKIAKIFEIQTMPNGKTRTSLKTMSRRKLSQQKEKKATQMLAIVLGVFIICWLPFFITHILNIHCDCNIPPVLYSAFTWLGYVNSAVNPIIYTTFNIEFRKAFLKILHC
Excerpt: NIH Chemical Genomics Center [NCGC] NIH Molecular Libraries Probe Centers Network [MLPCN] MLPCN Grant: NS064831-01 Assay Submitter (PI): David Sibley Dopamine receptors (DARs) are involved in the etiology and/or therapy of a number of neuropsychiatric and endocrine disorders. For instance, all receptor-based antiparkinsonian drugs work via stimulating the D2 DAR subtype whereas all FDA-approved antipsychotic agents are antagonists of this receptor. […] There are three different types of allosteric modulators that we are seeking, two of which will stimulate or augment receptor signaling, allosteric agonists and potentiators, while the third, allosteric antagonists, will attenuate receptor signaling. The present primary screening assay measures compound antagonism after an EC80 addition of dopamine by tracking calcium flux in a […], inducible Hek293 Trex D2 cell line.
Freshly passaged cells are plated in 1536 well black, clear bottom plates at a density of 4000 cells/well in 3 ul of complete media containing 1x tetracycline inducer. After an overnight incubation at 30 C in 5% CO2, cells are loaded with 2 ul of the no wash Calcium Assay Kit (ABD Bioquest) and incubated at room temperature for 30 to 90 minutes. Agonist read: A 10 cycle (1 second/cycle) baseline measurement is taken and then the FDSS online 1536 pintool delivers 23 nl of compound library (as well as dopamine controls) to the plate. The plate is measured for kinetically at 1 cycle/sec for 180 seconds. Following the 180 second read, 1 ul of an EC80 (negative modulation assay) is delivered by an onboard pipette head. Measurements are taken kinetically for an additional 180 seconds.

Compound	inhibition
CCOC(=O)c1nnn(CC(=O)NC(=O)Nc2cccc(CC)c2)c1C(=O)OCC	-2.9%
O=C(COc1ccc(Cl)cc1)NCCc1csc(-c2ccc(F)cc2)n1	-3.6%
COc1ccc(NC(=O)C2CCCN(S(=O)(=O)c3cccs3)C2)cc1 (stereo unspecified)	6.81%
CCC1CCCCN1CCCNC(=O)c1cc2c(=O)n(CC)c3ccccc3c2s1 (stereo unspecified)	-5.68%
NC(N)=NCCCC(NC(=O)c1ccccc1)C(=O)Nc1ccc([N+](=O)[O-])cc1 (stereo unspecified)	active: 75.2%
CCN1CCN(C(c2ccccc2)c2c(O)cc(C)n(Cc3ccco3)c2=O)CC1 (stereo unspecified)	7.92%
COc1ccc(CNC(=O)C2CCN(S(=O)(=O)c3ccc(C)cc3)CC2)cc1	22.7%
N#C/C(=C/c1ccc(Cl)cc1Cl)c1nc2ccccc2c(=O)[nH]1	4.5%
CCCCCNC(=O)c1ccc2c(c1)nc(C)n2-c1cccc(C)c1	20.3%
O=C(CCn1c(=O)c2cccn2c2ccccc21)Nc1ccc(F)cc1	-13.6% and active: 61.4%
O=C(NCc1cccs1)c1ccc(CSc2nc3cccnc3n2Cc2ccccc2)cc1	-0.115%
O=C1C2=C(Nc3ccccc3SC2c2ccccc2C(F)(F)F)c2ccccc21 (stereo unspecified)	-15.3%
Cc1ccc(C)c(NC(=O)Cn2c(=O)ccc3cc(S(=O)(=O)N4CCCC4)ccc32)c1	0.194%
Cc1cc(C)n(-c2nnc(Nc3cc(Cl)ccc3C)c3ccccc23)n1	10.9%
Cc1nc(-c2ccc(C)c(S(=O)(=O)N3CCC(C(=O)Nc4ccc(Cl)cc4)CC3)c2)no1	1.14%
COc1ccc(NC(=O)c2sc3nc4c(cc3c2N)CCCCCC4)cc1OC	-5.57%
Cc1nn(C)c(C)c1S(=O)(=O)N(CC(=O)N1CCN(c2ccccc2)CC1)c1ccc(C(C)C)cc1	-22.4%
CCN(CC)S(=O)(=O)c1ccc(NC2CCN(Cc3ccccc3)CC2)nc1	active: 36.3%
CCOc1ccccc1NC(=O)C1CCN(S(=O)(=O)c2ccc3[nH]c4c(c3c2)CCCCC4)CC1	5.29%
Cn1nc(-c2ccc(C(=O)Nc3cccc(C(F)(F)F)c3)cc2)c2ccccc2c1=O	4.25%
CCCCC(=O)OC1=C(C(=O)c2ccccc2)N(C)S(=O)(=O)c2ccccc21	6.57%
Cc1ccc(CNC(=O)c2cc(S(=O)(=O)N3CCCCCC3)cn2C)cc1	-25.2%
CCOc1ccccc1NC(=O)CN1c2ccccc2S(=O)(=O)c2ccccc21	11.6%
O=C(Nc1ccc(F)cc1F)c1cnn(-c2ccc(F)cc2)c1-n1cccc1	-17.5%

Compound	inhibition
Cc1cccc(CNC(=O)c2ccc3c(c2)N(C)C(=O)C2CCCCN32)c1 (stereo unspecified)	21.4%
COc1ccc(CNS(=O)(=O)c2cnc(N)nc2)cc1	12.7%
COc1cccc2c1Oc1ncccc1N(C(=O)Nc1cccc(Cl)c1)C2	12.1%
O=c1c2cccnc2[nH]c(=S)n1CCCN1CCN(c2ccccc2F)CC1	active: 116%
O=C(c1ccc(Cl)cc1)N1CCN(CCOc2ccccc2)CC1	active: 76.4%
COc1cccc(CNC(=O)C2CCN(S(=O)(=O)N3CCC(C)CC3)CC2)c1	-22.9%
O=C(/C=C/c1ccccc1Cl)N(c1ccccn1)C1CCCCC1	active: 98.8%
CC1CCN(S(=O)(=O)c2ccc3nc(Nc4ccc(C#N)cc4)ccc3c2)CC1	0.292%
O=C(NCC(c1cccnc1)N1CCc2ccccc2C1)C(=O)Nc1ccccc1 (stereo unspecified)	5.36%
COc1ccccc1CNS(=O)(=O)c1ccc(F)c(C(=O)Nc2cc(Cl)ccc2OC)c1	-3.57%
COc1ccccc1N1CCN(S(=O)(=O)c2c(C)nc3sc(C)c(C)n3c2=O)CC1	-5.6%
Cc1cccc(OCCSc2nc(-c3cccs3)nc3cc(=O)[nH]n23)c1	-1.01%
CCOc1ccc(Nc2nc(N)nc(CN3CCN(c4ccccc4F)CC3)n2)cc1	active: 33%
COc1ccc(Cn2ccc3nc(C)c(C(=O)Nc4ccc(OC(F)(F)F)cc4)cc3c2=O)cc1	12.3%
CCCCC(=O)OC1=C(C(=O)c2ccccc2)N(CC)S(=O)(=O)c2ccccc21	2.69%
CSc1ccc(CNC(=O)c2cc3cc(S(=O)(=O)N4CCCCC4)ccc3n2C)cc1	-13.4%
O=C(Nc1cccc(-c2nc3ccccc3o2)c1)c1cccc(Br)c1	13.9%
Cc1ccc(CN2C3CCCC2CC(NC(=O)c2ccc(F)cc2)C3)cc1 (stereo unspecified)	active: 92.1%
CCOC(=O)c1c(Nc2cc(C)cc(C)c2)nnc(-c2ccccc2)c1-c1ccccc1	-12.9%
Cc1cccc(-n2c3nc(=O)[nH]c(=O)c-3cc3c(C)nn(-c4ccccc4)c32)c1C	-1.35%
COc1ccccc1NC(=O)CSC1=Nc2ccccc2N=C(c2ccc(F)cc2)C1	-21%
O=C(Nc1ccccc1)c1cn(-c2ccccc2)nc1-c1ccccc1	4.66%
CCN(C(=O)Cn1c(=O)n(CC2CCC(C(=O)NC)CC2)c(=O)c2sccc21)c1ccccc1 (stereo unspecified)	7.08%
COc1cc2c(C(=O)N(C)c3cc(Cl)ccc3OC)cn(CC(C)C)c(=O)c2cc1OC	-16.6%

Compound	inhibition
Cc1nn(CCCC(=O)Nc2cccc(F)c2)c(=O)c2c1sc1ccccc12	9.74%
COc1ccccc1N1CCN(CCCCOc2cccc3ccccc23)CC1	active: 73.1%
Cc1ccc(SCC(=O)Nc2cccc(S(=O)(=O)N3CCOCC3)c2)cc1C	active: 34.9%
COc1ccc(NC(=O)CN2C(=O)CCc3cc(S(=O)(=O)N4CCOCC4)ccc32)cc1Cl	-15.4%
CCN(CC)C(=O)CSc1nc2ccccc2c(=O)n1Cc1ccco1	20.3%
Cc1ccc(NC(=O)Cn2c(-c3cncs3)nc3ccccc32)cc1Br	-8.15%
COc1ccc(Cl)cc1NC(=O)N1CC(=O)Nc2sc3c(c2C1c1ccccc1)CCCC3 (stereo unspecified)	-23.5%
CC1CCN(S(=O)(=O)c2ccc3c(c2)N(CC(=O)N2CCN(c4ccccc4)CC2)C(=O)CO3)CC1	-0.18%
CC(=O)c1ccc(NC(=O)Cn2ncc3c(C)n(Cc4ccc(F)cc4)c(C)c3c2=O)cc1	1.13%
COc1ccccc1CNc1ncnc2c1c(-c1ccccc1)cn2-c1cccc(C)c1	-16.3%
CN(C)S(=O)(=O)c1ccc(Cl)c(NC(=O)CN2CCCCCC2)c1	active: 34%
COc1ccccc1C(=O)Nc1nc2nc(C)c(Cc3ccccc3)c(=O)n2[nH]1	9.86%
COc1cccc(Cn2c(CNS(=O)(=O)c3ccc4c(c3)CCCC4)nc3cccnc32)c1	21.4%
Cc1ccc(NC(=O)c2cccc(S(=O)(=O)N3CCc4ccccc4C3)c2)nc1	active: 30.5%
CCc1ccc2c(c1)-c1ccccc1S(=O)(=O)N2CC(=O)N1CCC(C)CC1	0.239%
Cc1ccccc1C(=O)NC(=S)NC1CC1	active: 31.1%
Cc1ccccc1CNC(=O)CCC(=O)N1CC2CCCN2c2ccccc21 (stereo unspecified)	6.11%
Cc1cc(O)c(-c2ccnc3cc(-c4ccccc4)nn23)cc1Cl	-5.41%
CCOc1ccccc1C(=O)N(Cc1cccs1)c1ccc(Cl)cc1	-13.8%
COc1cc2ccccc2cc1C(=O)Nc1ccc2oc(-c3ccccc3)nc2c1	2.4%
Cc1ccc(Nc2cc(C(=O)NCc3cccs3)c3ccccc3n2)c(C)c1	3.65%
Cc1ccc(CCNC(=O)c2cc(-c3ccc(Cl)cc3)n[nH]2)cc1	23.2%
Cc1ccc(NC(=O)c2ccc3[nH]c(C)cc(=O)c3c2)c(C)c1	12.2%
Cc1ccc(NC(=O)Cc2coc3c(C)c(C)ccc23)cc1Cl	8.1%

Compound	inhibition
COc1ccc(Nc2ncc3c(n2)CCN(C(=O)OC(C)(C)C)C3)cc1	1.68%
COc1ccccc1CN1CCN(C2CCN(C(=O)NC(C)C)CC2)C(=O)C1=O	18.2%
CCCCn1c(=O)c2c(nc3n2CCCN3Cc2ccccc2)n(C)c1=O	active: 34.2%
Cc1nn(CC(=O)Nc2cccc(C(F)(F)F)c2)c(=O)c2nn(-c3ccccc3)c(C)c12	5.66%
COc1ccc(OC)c(NC(=O)C(=O)NNC(=O)c2cccs2)c1	active: 38.1%
CN(C(=O)CSc1nc2ccccc2n1Cc1cccc(C(F)(F)F)c1)c1ccccc1	-23.8%
CCOc1ccc(-n2c(=O)c3c(C)c(C)sc3n(Cc3cc(=O)n4cc(Cl)ccc4n3)c2=O)cc1	0.521%
CC(C)CSc1oc(-c2ccco2)nc1S(=O)(=O)c1ccc(Br)cc1	-12.9%
CCOc1ccc(-n2c(SCC(=O)NC)nnc2-c2ccco2)cc1	active: 36.3%
O=C(NCCc1csc(-c2ccc(F)cc2)n1)c1c(F)cccc1Cl	1.05%
O=C(COC(=O)c1cc(-c2ccccc2)nc2c(Cl)cccc12)c1ccc(F)cc1	11.5%
COc1ccc(C)cc1NC(=O)CC(=O)Nc1ccc2nc3n(c(=O)c2c1)CCCCC3	-8.88%
CCOc1ccc(C2=CC(c3cc(Br)ccc3F)n3ncnc3N2)cc1Cl (stereo unspecified)	4.81%
Cc1cccc(Cn2c(=O)oc3ccc(C)cc32)c1	active: 31.5%
O=S(=O)(c1ccccc1)N1CCC(N2CCN(c3ccccc3)CC2)CC1	active: 70.7%
COc1ccc(CNC(=O)c2cc(C)nc3c2c(C)nn3-c2cccc(Cl)c2C)cc1	-1.77%
CC(C)CN(CCCNC(=O)c1cn(C)c2ccc(S(=O)(=O)N(C)C3CCCCC3)cc2c1=O)CC(C)C	-20.2%
COc1cccc(NC(=O)C(CCSC)NC(=O)C2CCC(C)CC2)c1 (stereo unspecified)	-6.11%
CCn1cc(C(=O)N2CCN(c3ccc(OC)cc3)CC2)c(=O)c2cc(S(=O)(=O)N(C)C3CCCCC3)ccc21	5.08%
COc1cccc(CNC(=O)c2nn(C)c3c2CS(=O)(=O)c2ccccc2-3)c1	0.407%
O=C(CSc1nnc(NC(=O)c2ccccc2F)s1)Nc1ccccc1F	active: 36%
O=C(NCc1ccco1)c1ccc2c(c1)N(Cc1ccccc1F)C(=O)c1ccccc1S2=O (stereo unspecified)	15.2%
COc1ccc(NC(=O)CSC2=Nc3ccccc3C3=NC(CCC(=O)NCCc4ccccc4)C(=O)N23)c(OC)c1 (stereo unspecified)	-6.32%
COc1ccc(OCc2cc(C(=O)NC(C)Cc3ccccn3)no2)c(Cl)c1 (stereo unspecified)	active: 32.5%
